# Laboratory results published in a collection of fitness landscapes (doi:10.1126/science.1257360).
# This is one part of the list.
# B1: PhoQ; a variant is named by its letters at X, in order, P23837 (parent)
# chain: MKKLLRLFFPLSLRVRFLLATAAVVLVLSLAYGMVALIGYSVSFDKTTFRLLRGESNLFYTLAKWENNKLHVELPENIDKQSPTMTLIYDENGQLLWAQRDVPWLMKMIQPDWLKSNGFHEIEADVNDTSLLLSGDHSIQQQLQEVREDDDDAEMTHSVAVNVYPATSRMPKLTIVVVDTIPVELKSSYMVWSWFIYVLSANLLLVIPLLWVAAWWSLRPIEALAKEVRELEEHNRELLNPATTRELTSLVRNLNRLLKSERERYDKYRTTLTDLTHSLKTPLXXLQXXLRSLRSEKMSVSDAEPVMLEQISRISQQIGYYLHRASMRGGTLLSRELHPVAPLLDNLTSALNKVYQRKGVNISLDISPEISFVGEQNDFVEVMGNVLDNACKYCLEFVEISARQTDEHLYIVVEDDGPGIPLSKREVIFDRGQRVDTLRPGQGVGLAVAREITEQYEGKIVAGESMLGGARMEVIFGRQHSAPKDE
# Variants of: B1
# Assay: enrichment ratio after two sorts for PhoP signalling (ratio (wild type AVST 3.29)); higher = more functional
# Settings: with PhoP (E. coli)
row,Variant,enrichment ratio
1,EGTP,≤ 0.25
2,TGRP,≤ 0.25
3,QPWC,≤ 0.25
4,DEKL,≤ 0.25
5,PGVA,≤ 0.25
6,RALG,≤ 0.25
7,GLYL,≤ 0.25
8,WTPP,≤ 0.25
9,GASG,≤ 0.25
10,TPWT,≤ 0.25
11,QAVM,≤ 0.25
12,RNIQ,≤ 0.25
13,GYQC,≤ 0.25
14,HIMM,≤ 0.25
15,SKGA,≤ 0.25
16,RLRV,≤ 0.25
17,GNHC,≤ 0.25
18,SGIW,≤ 0.25
19,FMAP,≤ 0.25
20,LFIH,≤ 0.25
21,DYRQ,≤ 0.25
22,VHRK,≤ 0.25
23,WHPL,≤ 0.25
24,RAML,≤ 0.25
25,PWFY,≤ 0.25

row,Variant,enrichment ratio
1,MKWD,≤ 0.25
2,TGVN,5.82
3,TTPF,≤ 0.25
4,HTHY,≤ 0.25
5,TPEW,≤ 0.25
6,QKDS,≤ 0.25
7,LLIF,≤ 0.25
8,YFHW,≤ 0.25
9,YGTC,≤ 0.25
10,AHSM,4.11
11,AAVR,1.39
12,KRIV,≤ 0.25
13,TRLP,≤ 0.25
14,PDSV,≤ 0.25
15,CTGH,≤ 0.25
16,FCKL,≤ 0.25
17,FLKH,≤ 0.25
18,RAWL,≤ 0.25
19,IVGQ,≤ 0.25
20,QTIA,≤ 0.25
21,GKNM,≤ 0.25
22,PTLN,≤ 0.25
23,RDNK,≤ 0.25
24,MAWH,1.71
25,TEHG,6.55

row,Variant,enrichment ratio
1,ELHE,≤ 0.25
2,TKWI,≤ 0.25
3,LASV,≤ 0.25
4,AFPK,≤ 0.25
5,IGRG,≤ 0.25
6,FNML,4
7,PHAG,≤ 0.25
8,GEHR,≤ 0.25
9,YNCL,≤ 0.25
10,RPQI,1.11
11,LVFF,≤ 0.25
12,KENP,≤ 0.25
13,FSEK,≤ 0.25
14,ISAA,≤ 0.25
15,QNRF,≤ 0.25
16,NARV,≤ 0.25
17,KICA,≤ 0.25
18,YQLQ,2.26
19,DSKL,≤ 0.25
20,THYP,≤ 0.25
21,VWFQ,≤ 0.25
22,AGIT,1.83
23,EDPS,≤ 0.25
24,GHDK,≤ 0.25
25,YVHM,≤ 0.25

row,Variant,enrichment ratio
1,ESKC,≤ 0.25
2,VSVE,≤ 0.25
3,QPYT,≤ 0.25
4,RLEW,≤ 0.25
5,PRYG,≤ 0.25
6,GELV,10.8
7,ANDP,≤ 0.25
8,IDGY,≤ 0.25
9,AETQ,≤ 0.25
10,NNYW,≤ 0.25
11,FNDR,≤ 0.25
12,VVTV,≤ 0.25
13,ICLL,10.3
14,PNIC,≤ 0.25
15,PAAN,≤ 0.25
16,PQED,≤ 0.25
17,EISQ,≤ 0.25
18,GDFN,≤ 0.25
19,GYKD,≤ 0.25
20,AACM,2.51
21,FHIM,≤ 0.25
22,TFGQ,≤ 0.25
23,PMWG,≤ 0.25
24,RSHC,≤ 0.25
25,IILV,1.58

row,Variant,enrichment ratio
1,WKMQ,≤ 0.25
2,SKRW,≤ 0.25
3,KCTN,≤ 0.25
4,NKQN,≤ 0.25
5,WGRP,≤ 0.25
6,TRCG,≤ 0.25
7,FYNL,≤ 0.25
8,HVRN,≤ 0.25
9,DCGF,≤ 0.25
10,ECMY,≤ 0.25
11,YPLV,≤ 0.25
12,FNLC,≤ 0.25
13,TMCY,0.423
14,QLWH,≤ 0.25
15,SSQF,0.505
16,MDGA,≤ 0.25
17,EEPT,≤ 0.25
18,AQGE,≤ 0.25
19,KLNV,≤ 0.25
20,KHYP,≤ 0.25
21,WMHA,≤ 0.25
22,IQLD,≤ 0.25
23,QDFR,≤ 0.25
24,NDIK,≤ 0.25
25,WCSP,≤ 0.25

row,Variant,enrichment ratio
1,HRTS,≤ 0.25
2,NQSQ,≤ 0.25
3,MAFG,0.508
4,ERWS,≤ 0.25
5,QCAS,≤ 0.25
6,IRWK,≤ 0.25
7,VDKH,≤ 0.25
8,LQTY,≤ 0.25
9,TDQC,≤ 0.25
10,HFSF,0.903
11,EIDK,≤ 0.25
12,RISK,≤ 0.25
13,MRIQ,≤ 0.25
14,HVAF,≤ 0.25
15,HVGM,≤ 0.25
16,FRNN,≤ 0.25
17,FRGA,≤ 0.25
18,HFPA,≤ 0.25
19,RERL,≤ 0.25
20,LAMA,≤ 0.25
21,WWMH,≤ 0.25
22,PWFN,≤ 0.25
23,EVTP,≤ 0.25
24,GMQP,≤ 0.25
25,SWPD,≤ 0.25

row,Variant,enrichment ratio
1,FIDD,≤ 0.25
2,AHCY,12.7
3,PQPY,≤ 0.25
4,SRPW,≤ 0.25
5,GIFT,≤ 0.25
6,WLQY,≤ 0.25
7,QCWT,≤ 0.25
8,YMIE,≤ 0.25
9,SEYF,3.94
10,HPGH,≤ 0.25
11,TACQ,15
12,PRIK,≤ 0.25
13,MYSN,≤ 0.25
14,GEAC,≤ 0.25
15,MSIG,≤ 0.25
16,THQS,1.05
17,LPYL,≤ 0.25
18,YVPK,≤ 0.25
19,MNKD,≤ 0.25
20,SVKW,≤ 0.25
21,HGQI,≤ 0.25
22,SNGP,≤ 0.25
23,MWTI,≤ 0.25
24,PMFF,≤ 0.25
25,IGGK,≤ 0.25

row,Variant,enrichment ratio
1,QKYN,≤ 0.25
2,VPAH,≤ 0.25
3,SDCI,4.22
4,DDQV,≤ 0.25
5,FAQG,≤ 0.25
6,INWV,≤ 0.25
7,QPKE,≤ 0.25
8,LYET,≤ 0.25
9,SPTN,≤ 0.25
10,MKTD,≤ 0.25
11,ADNS,≤ 0.25
12,RTWW,≤ 0.25
13,NKPR,≤ 0.25
14,FSGG,≤ 0.25
15,QERS,≤ 0.25
16,ENMI,≤ 0.25
17,WQHG,≤ 0.25
18,LIQY,≤ 0.25
19,DFHG,≤ 0.25
20,DKSQ,≤ 0.25
